Laboratory results published in the supplement of paper PMC4967469.
IC50 is the fitted dose that halves viability relative to control wells, and lower means more sensitive; a fit beyond the top or the lowest dose is shown as a bound at that dose. For AUC the same curve is integrated over the 256-fold range of doses and scaled to a fraction; it is 1 without any effect and falls as sensitivity rises. For part of these data: Any top dose called inferred is not printed in the source and was worked back from the curve model.

Legend:
Assay in all cases: Viability of human cancer cell lines after 72 h of drug (GDSC screen)
Obatoclax mesylate = compound: COC1=CC(c2cc3ccccc3[nH]2)=N/C1=C\c1[nH]c(C)cc1C [Obatoclax mesylate]; details: top dose 16 µM
Protocol: (§1)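 Human cancer cell lines in 384-well plates, medium with 10% serum, drug for 72 h over a 256-fold dose range (nine 2-fold or five 4-fold steps up to the top dose). Adherent lines were fixed and stained with the nucleic acid dye Syto60, suspension lines read with resazurin; signal relative to control wells, capped at 0 and 100%. One two-parameter sigmoid per drug and line, fitted in a mixed model over all curves with the slope shared within a line.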

CP724714 = compound: COCC(=O)NC/C=C/c1ccc2ncnc(Nc3ccc(Oc4ccc(C)nc4)c(C)c3)c2c1 [CP724714]; details: top dose 10.24 µM; top dose inferred
Protocol: as §1

STF-62247 = compound: Cc1cccc(Nc2nc(-c3ccncc3)cs2)c1 [STF-62247]; details: top dose 10.24 µM; top dose inferred
Protocol: as §1

CX-5461 = compound: Cc1cnc(CNC(=O)c2c(=O)c3ccc(N4CCCN(C)CC4)nc3n3c2sc2ccccc23)cn1 [CX-5461]; details: top dose 10.24 µM; top dose inferred
Protocol: as §1

Cell Line | AUC (Obatoclax mesylate) | IC50 (Obatoclax mesylate) [µM] | AUC (CP724714) | IC50 (CP724714) [µM] | AUC (STF-62247) | IC50 (STF-62247) [µM] | AUC (CX-5461) | IC50 (CX-5461) [µM]
JHH-6 (liver, adherent) | 0.301 | 0.273 | 0.986 | > 10.2 | 0.987 | > 10.2 | 0.981 | > 10.2
JHH-7 (liver, adherent) | 0.299 | 0.283 | 0.973 | > 10.2 | 0.989 | > 10.2 | 0.885 | 9.96
JHU-011 (head and neck, adherent) | 0.056 | < 0.0625 | 0.929 | > 10.2 | 0.979 | > 10.2 | 0.798 | 4.78
JHU-022 (head and neck, adherent) | 0.751 | 6.56 | 0.975 | > 10.2 | 0.982 | > 10.2 | 0.977 | > 10.2
JIMT-1 (breast, adherent) | 0.357 | 0.388 | 0.98 | > 10.2 | 0.963 | > 10.2 | 0.963 | > 10.2
K2 (melanoma, adherent) | 0.558 | 1.51 | 0.975 | > 10.2 | 0.977 | > 10.2 | 0.982 | > 10.2
KMH-2 (thyroid, adherent) | 0.025 | < 0.0625 | 0.987 | > 10.2 | 0.984 | > 10.2 | 0.99 | > 10.2
KMRC-1 (kidney, adherent) | 0.682 | 3.35 | 0.987 | > 10.2 | 0.986 | > 10.2 | 0.987 | > 10.2
KMRC-20 (kidney, adherent) | 0.625 | 2.22 | 0.986 | > 10.2 | 0.98 | > 10.2 | 0.989 | > 10.2
KON (head and neck, adherent) | 0.043 | < 0.0625 | 0.981 | > 10.2 | 0.987 | > 10.2 | 0.987 | > 10.2
KOSC-2 (head and neck, adherent) | 0.852 | 13.2 | 0.985 | > 10.2 | 0.982 | > 10.2 | 0.967 | > 10.2
KP-2 (pancreas, adherent) | 0.239 | 0.164 | 0.948 | > 10.2 | 0.977 | > 10.2 | 0.976 | > 10.2
KP-3 (pancreas, adherent) | 0.356 | 0.369 | 0.984 | > 10.2 | 0.98 | > 10.2 | 0.926 | > 10.2
KP-4 (pancreas, adherent) | 0.454 | 0.754 | 0.987 | > 10.2 | 0.988 | > 10.2 | 0.956 | > 10.2
KU-19-19 (bladder, adherent) | 0.669 | 2.96 | 0.982 | > 10.2 | 0.971 | > 10.2 | 0.987 | > 10.2
KYM-1 (rhabdomyosarcoma, adherent) | 0.27 | 0.249 | 0.989 | > 10.2 | 0.991 | > 10.2 | 0.986 | > 10.2
KYSE-50 (oesophagus, adherent) | 0.024 | < 0.0625 | 0.952 | > 10.2 | 0.985 | > 10.2 | 0.949 | > 10.2
KYSE-70 (oesophagus, adherent) | 0.179 | 0.0965 | 0.97 | > 10.2 | 0.987 | > 10.2 | 0.978 | > 10.2
KYSE-140 (oesophagus, adherent) | 0.072 | < 0.0625 | 0.952 | > 10.2 | 0.979 | > 10.2 | 0.984 | > 10.2
KYSE-150 (oesophagus, adherent) | 0.175 | 0.11 | 0.985 | > 10.2 | 0.989 | > 10.2 | 0.956 | > 10.2
KYSE-180 (oesophagus, adherent) | 0.152 | 0.0897 | 0.967 | > 10.2 | 0.942 | > 10.2 | 0.788 | 4.26

Cell Line | AUC (Obatoclax mesylate) | IC50 (Obatoclax mesylate) [µM] | AUC (CP724714) | IC50 (CP724714) [µM] | AUC (STF-62247) | IC50 (STF-62247) [µM] | AUC (CX-5461) | IC50 (CX-5461) [µM]
KYSE-220 (oesophagus, adherent) | 0.27 | 0.213 | 0.964 | > 10.2 | 0.985 | > 10.2 | 0.964 | > 10.2
KYSE-270 (oesophagus, adherent) | 0.078 | < 0.0625 | 0.976 | > 10.2 | 0.987 | > 10.2 | 0.991 | > 10.2
KYSE-410 (oesophagus, adherent) | 0.18 | 0.1 | 0.916 | > 10.2 | 0.985 | > 10.2 | 0.862 | 9.75
KYSE-450 (oesophagus, adherent) | 0.035 | < 0.0625 | 0.897 | > 10.2 | 0.982 | > 10.2 | 0.566 | 0.958
KYSE-510 (oesophagus, adherent) | 0.023 | < 0.0625 | 0.989 | > 10.2 | 0.992 | > 10.2 | 0.939 | > 10.2
KYSE-520 (oesophagus, adherent) | 0.392 | 0.457 | 0.967 | > 10.2 | 0.965 | > 10.2 | 0.982 | > 10.2
LC-1-sq (lung squamous cell carcinoma, adherent) | 0.672 | 3.29 | 0.968 | > 10.2 | 0.983 | > 10.2 | 0.969 | > 10.2
LCLC-97TM1 (large cell lung carcinoma, adherent) | 0.122 | < 0.0625 | 0.911 | > 10.2 | 0.944 | > 10.2 | 0.675 | 2.07
LCLC-103H (large cell lung carcinoma, adherent) | 0.071 | < 0.0625 | 0.99 | > 10.2 | 0.966 | > 10.2 | 0.985 | > 10.2
LK-2 (lung squamous cell carcinoma, adherent) | 0.131 | 0.0747 | 0.949 | > 10.2 | 0.963 | > 10.2 | 0.944 | > 10.2
LN-18 (glioma, adherent) | 0.217 | 0.185 | 0.991 | > 10.2 | 0.994 | > 10.2 | 0.994 | > 10.2
LN-229 (glioma, adherent) | 0.456 | 0.761 | 0.974 | > 10.2 | 0.985 | > 10.2 | 0.986 | > 10.2
LN-405 (glioma, adherent) | 0.488 | 0.923 | 0.984 | > 10.2 | 0.983 | > 10.2 | 0.984 | > 10.2
LNZTA3WT4 (glioma, adherent) | 0.458 | 0.771 | 0.969 | > 10.2 | 0.98 | > 10.2 | 0.935 | > 10.2
LOU-NH91 (lung squamous cell carcinoma, adherent) | 0.628 | 2.33 | 0.985 | > 10.2 | 0.982 | > 10.2 | 0.986 | > 10.2
LS-180 (large intestine, adherent) | 0.373 | 0.423 | 0.966 | > 10.2 | 0.985 | > 10.2 | 0.909 | > 10.2
LS-411N (large intestine, adherent) | 0.265 | 0.181 | 0.979 | > 10.2 | 0.953 | > 10.2 | 0.779 | 5.15
LU-99A (large cell lung carcinoma, adherent) | 0.42 | 0.606 | 0.982 | > 10.2 | 0.985 | > 10.2 | 0.931 | > 10.2
LU-135 (small cell lung carcinoma, suspension) | 0.182 | 0.14 | 0.992 | > 10.2 | 0.991 | > 10.2 | 0.835 | 5.19
LoVo (large intestine, adherent) | 0.202 | 0.13 | 0.987 | > 10.2 | 0.965 | > 10.2 | 0.987 | > 10.2
M14 (melanoma, adherent) | 0.423 | 0.607 | 0.987 | > 10.2 | 0.974 | > 10.2 | 0.987 | > 10.2

Cell Line | AUC (Obatoclax mesylate) | IC50 (Obatoclax mesylate) [µM] | AUC (CP724714) | IC50 (CP724714) [µM] | AUC (STF-62247) | IC50 (STF-62247) [µM] | AUC (CX-5461) | IC50 (CX-5461) [µM]
M059J (glioma, adherent) | 0.546 | 1.35 | 0.983 | > 10.2 | 0.976 | > 10.2 | 0.872 | > 10.2
MC-IXC (neuroblastoma, adherent) | 0.177 | 0.158 | 0.996 | > 10.2 | 0.991 | > 10.2 | 0.752 | 2.65
MCF7 (breast, adherent) | 0.034 | < 0.0625 | 0.98 | > 10.2 | 0.986 | > 10.2 | 0.986 | > 10.2
MDA-MB-157 (breast, adherent) | 0.48 | 0.881 | 0.988 | > 10.2 | 0.987 | > 10.2 | 0.988 | > 10.2
MDA-MB-175-VII (breast, adherent) | 0.607 | 2.03 | 0.589 | 1.15 | 0.981 | > 10.2 | 0.988 | > 10.2
MDA-MB-231 (breast, adherent) | 0.479 | 0.875 | 0.971 | > 10.2 | 0.975 | > 10.2 | 0.978 | > 10.2
MDA-MB-330 (breast, adherent) | 0.601 | 1.97 | 0.963 | > 10.2 | 0.986 | > 10.2 | 0.985 | > 10.2
MDA-MB-361 (breast, adherent) | 0.457 | 0.765 | 0.946 | > 10.2 | 0.988 | > 10.2 | 0.989 | > 10.2
MDA-MB-415 (breast, adherent) | 0.624 | 2.48 | 0.981 | > 10.2 | 0.982 | > 10.2 | 0.983 | > 10.2
MDA-MB-436 (breast, adherent) | 0.508 | 1.06 | 0.977 | > 10.2 | 0.983 | > 10.2 | 0.903 | > 10.2
MDA-MB-453 (breast, adherent) | 0.571 | 1.59 | 0.807 | 5.96 | 0.972 | > 10.2 | 0.881 | > 10.2
MDA-MB-468 (breast, adherent) | 0.49 | 0.937 | 0.956 | > 10.2 | 0.968 | > 10.2 | 0.906 | > 10.2
ME-180 (cervix, adherent) | 0.557 |  | 0.929 | > 10.2 | 0.986 | > 10.2 | 0.905 | > 10.2
MEL-JUSO (melanoma, adherent) | 0.095 | < 0.0625 | 0.971 | > 10.2 | 0.973 | > 10.2 | 0.746 | 3.58
MES-SA (uterus, adherent) | 0.341 | 0.391 | 0.987 | > 10.2 | 0.992 | > 10.2 | 0.991 | > 10.2
MFE-280 (endometrium, adherent) | 0.507 | 1.05 | 0.922 | > 10.2 | 0.957 | > 10.2 | 0.92 | > 10.2
MFE-296 (endometrium, adherent) | 0.231 | 0.154 | 0.981 | > 10.2 | 0.982 | > 10.2 | 0.981 | > 10.2
MFE-319 (endometrium, adherent) | 0.252 | 0.199 | 0.979 | > 10.2 | 0.987 | > 10.2 | 0.989 | > 10.2
MG-63 (osteosarcoma, adherent) | 0.273 | 0.202 | 0.984 | > 10.2 | 0.982 | > 10.2 | 0.812 | 6.61
MHH-ES-1 (Ewing sarcoma, adherent) | 0.257 | 0.203 | 0.979 | > 10.2 | 0.986 | > 10.2 | 0.724 | 2.74
